Experimental data as given in PubChem BioAssay AID686979 (National Center for Advancing Translational Sciences (NCATS), 2013).
“And” between values parts separate entries of the source, which are not always exact repeats. Equal values may be shown once. Among all 420,000 compounds or so, about 50,000 (12%) were called active. This list was built around the results that the source calls inconclusive (neither active nor inactive); the mix of calls is not that of the screen. Calls come from the whole dose curve; as a rule, active = well fitted inhibition curve with a large enough effect; inconclusive = small, poorly fitted or top-dose-only effect; inactive = flat fitted curve, though single readings scatter. No potency is given beside an inconclusive call; the fits are too rough.

assay: qHTS for Inhibitors of human tyrosyl-DNA phosphodiesterase 1 (TDP1): qHTS in cells in presence of CPT; conditions: chicken DT40 Tdp1-/-;hTDP1 cells + 20 nM CPT, ATP luminescence, 48 h; activity change, negative = growth inhibition: at 46.2 µM (top of the series) unless noted; note: nearly all actives have a fitted effect of over 55% in size
Method in brief: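 Chicken DT40 Tdp1-/- cells stably complemented with human TDP1 were seeded at 400 cells/well in medium containing 20 nM camptothecin, exposed to pin-transferred compounds, and grown at 37 °C for at least 48 hr. Viability was read as ATP luminescence.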
% is set by controls: 0 for no effect and ±100 for the full control effect; potency is the fitted concentration of half-maximal effect; tags give direction and shape of the fitted curve.

| Structure (SMILES) | Potency | activity change, negative = growth inhibition |
| --- | --- | --- |
| O=C(Cc1ccc(Br)cc1)N1CCN(Cc2ccccc2)CC1 | inconclusive [inhibitor, single point] |  |
| Cn1c(=O)c2c(ncn2CC(=O)Nc2nc(-c3ccccc3Cl)cs2)n(C)c1=O | inconclusive [inhibitor, partial curve] |  |
| COc1ccccc1-n1c(/C=C/c2ccc(O)cc2)nc2ccccc2c1=O | inconclusive [inhibitor, single point] |  |
| CCC(C)n1c(O)c(C=NCCc2ccccc2)c(=O)[nH]c1=S (stereo not given) |  | inactive: -13.6% |
| CCC12CN3CCN(CC(C3)/C1=N\O)C2 |  | inactive: 8.19% |
| CCn1cc(C(=O)N2CCOCC2)c2ccccc21 |  | inactive: -5.7% |
| CCc1ccc(OCC(=O)Nc2cc3oc4ccccc4c3cc2OC)cc1 | inconclusive [inhibitor, single point] |  |
| COc1ccc(C(=O)C2CCCN(Cc3ccc(C)s3)C2)c(OC)c1 (stereo not given) | inconclusive [inhibitor, single point] |  |
| COC(=O)C1=C(c2c(C)noc2C)C[C@@H]2CC[C@H]1N2C(=O)NCc1ccc(F)cc1 |  | inactive: -4.16% |
| CN1[C@@H]2CCC[C@H]1CC(=O)C2 |  | inactive: -4.75% |
| C#C[C@]1(O)CCC2C3C(=O)C=C4C(Cl)=CCC[C@]4(C)C3CC[C@@]21C (stereo not given in full) | active: 16.4 µM |  |
| CCCCCN1C(=O)c2ccccc2[C@@]2(C(=O)OCC)Cc3cc(Cl)ccc3[C@@H]12 | inconclusive [inhibitor, single point] |  |
| Cn1c(O)c(C(=N)COc2cccc(Cl)c2)c(=O)n(C)c1=O |  | inactive: -2.23% |
| O=S(=O)(c1cccc2ccccc12)N1Cc2ccccc2-n2nncc2C1 | active: 23.1 µM |  |
| COc1cc(CN=C(C)c2c(O)n(C3CCCCC3)c(=O)[nH]c2=O)cc(OC)c1 | inconclusive [inhibitor, single point] |  |
| COc1cc(/C=C(/C)[N+](=O)[O-])ccc1OCc1ccccc1Cl | active: 3.26 µM |  |
| N=C1c2ccccc2CN1NC(=O)c1ccco1 |  | inactive: 10.2% |
| CCC1CN1P1(=O)OCC(C)([N+](=O)[O-])CO1 (stereo not given) | inconclusive [inhibitor, single point] |  |

| Structure (SMILES) | Potency | activity change, negative = growth inhibition |
| --- | --- | --- |
| O=C1C=CC(=O)c2c(O)cccc21 | inconclusive [inhibitor, single point] |  |
| CN(C(=O)Cc1ccc(Cl)c(Cl)c1)[C@H](CN1CCCC1)c1ccccc1 | active: 23.7 µM and active: 14.6 µM |  |
| COC[C@H]1OC(=O)c2coc3c2[C@@]1(C)C1=C(C3=O)[C@@H]2CCC(=O)[C@@]2(C)C[C@H]1OC(C)=O | active: 0.92 µM |  |
| COc1ccc(C(c2nnnn2C2CCCC2)N2CCC3(CC2)C(=O)NCN3c2ccccc2)cc1 (stereo not given) | inconclusive [inhibitor, single point] |  |
| CC12CN3CCN(C1)CC(C)(C3)C2=NN |  | inactive: 12.8% |
| COc1cccc(-n2c(/C=C/c3ccccn3)nc3ccccc3c2=O)c1 | inconclusive [inhibitor, single point] |  |
| COc1ccc(C(=O)Oc2c(CN3CCOCC3)cc(Cl)c3cccnc23)cc1OC | active: 2.59 µM and active: 5.01 µM |  |
| O=c1c2ccccc2nc(/C=C/c2ccccc2O)n1-c1ccc(Br)cc1 | inconclusive [inhibitor, single point] |  |
| C/C(=N\N1CCCCC1c1cccnc1)c1c(O)n(C2CCCCC2)c(=S)[nH]c1=O (stereo not given) | inconclusive [inhibitor, single point] |  |
| CC(C)OP(=O)(OC(C)C)C(Nc1ccc([N+](=O)[O-])cc1)c1cccc([N+](=O)[O-])c1 (stereo not given) | inconclusive [inhibitor, single point] |  |
| C=CCN1C(=O)C2(C(C(=O)OC)=C(N)Oc3c2c(=O)oc2ccccc32)c2ccccc21 (stereo not given) | inconclusive [inhibitor, single point] |  |
| COc1c(Cl)cc(Cl)cc1C(=O)Nc1cccc(-c2nc3ccccc3o2)c1C | inconclusive [inhibitor, full curve, poor fit] |  |
| COc1ccc(OCCn2c(NC(=O)c3ccc(OC)cc3)nc3ccccc32)cc1 | active: 18.4 µM |  |
| CCOC(=O)C1(CCCc2ccccc2)CCN(C2CCC2)CC1 |  | inactive: -23.3% |
| COc1ccccc1C(=O)Nc1ccc2nc(SCC(=O)N3CCCc4ccccc43)sc2c1 | active: 5.17 µM |  |
| Cc1ccc(C)c(S(=O)(=O)c2nnn3c2nc(N2CCN(C)CC2)c2sccc23)c1 | active: 16.4 µM |  |
| Cc1cc(=O)oc2cc(Oc3ccc([N+](=O)[O-])cc3C(F)(F)F)ccc12 | inconclusive [inhibitor, single point] |  |
